Experimental data as given in paper PMC4336329 (PLoS ONE, 2015).
About 14,000 (4.5%) of roughly 310,000 compounds showed an effect of 50% or more. The effect is printed as a negative number. The list shows a part of the results.

biological target: human ether-à-go-go-related gene (hERG) potassium channel (human, UniProt Q12809); test: primary screen, population patch clamp on CHO cells stably expressing hERG
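Note: peak tail current of the secondary pulse compared with the same well before compound.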

Chain of human ether-à-go-go-related gene (hERG) potassium channel (Q12809 whole entry, looked up): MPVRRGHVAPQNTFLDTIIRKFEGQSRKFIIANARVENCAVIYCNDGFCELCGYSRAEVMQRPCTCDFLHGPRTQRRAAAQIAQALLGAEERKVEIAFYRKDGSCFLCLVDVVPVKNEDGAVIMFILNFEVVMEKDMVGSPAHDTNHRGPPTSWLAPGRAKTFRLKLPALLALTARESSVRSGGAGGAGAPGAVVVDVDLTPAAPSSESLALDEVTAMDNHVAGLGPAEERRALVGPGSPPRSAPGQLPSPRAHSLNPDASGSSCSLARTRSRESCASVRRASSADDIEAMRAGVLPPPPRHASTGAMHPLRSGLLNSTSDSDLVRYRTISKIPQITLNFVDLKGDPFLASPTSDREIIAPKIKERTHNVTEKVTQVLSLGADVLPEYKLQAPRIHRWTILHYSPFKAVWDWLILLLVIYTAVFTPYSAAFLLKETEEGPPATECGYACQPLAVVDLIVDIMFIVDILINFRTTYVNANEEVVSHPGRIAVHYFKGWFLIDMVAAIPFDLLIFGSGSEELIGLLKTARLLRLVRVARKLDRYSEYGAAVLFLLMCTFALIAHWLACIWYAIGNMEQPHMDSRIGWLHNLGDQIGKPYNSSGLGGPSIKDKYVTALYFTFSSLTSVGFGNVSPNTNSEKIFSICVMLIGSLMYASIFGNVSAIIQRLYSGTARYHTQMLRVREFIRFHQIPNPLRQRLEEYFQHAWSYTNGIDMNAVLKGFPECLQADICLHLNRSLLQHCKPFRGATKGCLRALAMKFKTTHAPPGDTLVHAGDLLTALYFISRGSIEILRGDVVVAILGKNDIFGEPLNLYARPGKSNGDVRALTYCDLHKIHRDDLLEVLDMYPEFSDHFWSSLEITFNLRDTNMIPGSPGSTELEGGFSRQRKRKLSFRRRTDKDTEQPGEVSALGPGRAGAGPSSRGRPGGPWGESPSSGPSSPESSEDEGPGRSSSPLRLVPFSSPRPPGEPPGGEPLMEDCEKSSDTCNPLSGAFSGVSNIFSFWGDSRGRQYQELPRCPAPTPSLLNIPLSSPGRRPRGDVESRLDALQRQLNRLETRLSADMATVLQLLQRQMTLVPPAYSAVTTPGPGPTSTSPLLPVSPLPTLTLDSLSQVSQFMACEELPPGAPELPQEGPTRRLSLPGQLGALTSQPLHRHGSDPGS

SMILES	hERG current change (%, negative = inhibition) at 10uM
Cc1ccc(S(=O)(=O)N(C)C)cc1-n1c(SCC(=O)N(C)C)nc2ccccc2c1=O	-3.69%
CC(C)(C)C(=O)N1CCN(c2ccc([N+](=O)[O-])cc2Cl)CC1	-33.2%
Nc1ccc(Oc2ccc(Cl)cc2)cc1	18.1%
NC(=O)c1nsc(C(=O)N(Cc2cccnc2)C(C(=O)NC2CCCCC2)c2ccc(F)cc2)c1N (centres unmarked)	9.23%
O=C(COc1nncc2ccccc12)NCC(F)(F)F	16.5%
Cc1cccc(/C=N/NC(=O)c2ccc(NC(=O)c3ccc(F)cc3)cc2)n1	-0.123%
CCOC(=O)CSc1nc2c(c(-c3ccc(C)o3)c1C#N)CCCC2	11.9%
COc1cc(OC)c(OC)cc1/C=N/NC(=O)c1cc(-c2cccn2C)n[nH]1	-23.5%
O=C(c1ccco1)N1CCN(C(=O)c2cnn3cccnc23)CC1	12.4%
CN(Cc1ccc(Cl)c(Cl)c1)C(=O)C1=CC=CN2CCS(=O)(=O)N=C12	-0.925%
CCCn1nc(C(=O)NNC(=O)CCCOc2ccc(C)cc2)c2ccccc2c1=O	-15.3%
O=C(NCCc1c[nH]c2ccccc12)c1ccc(S(=O)(=O)NCc2ccco2)cc1	3.78%
C=CCNC(=O)c1ccccc1NC(=O)c1ccc(Cl)c(S(=O)(=O)Nc2ccccc2)c1	-15.5%
O=C(c1cc2ccccc2oc1=O)N(Cc1cccs1)Cc1cccs1	-14.4%
COc1ccc(Oc2nc(SC)nc3ccccc23)cc1	7.93%
N#CC(C#N)=Cc1ccccc1OCc1ccccc1	9.08%
C/C=C/C(=O)N1CC2(CC(c3cccc(NC(=O)CC)c3)=NO2)C[C@H]1C(N)=O (some centres unmarked)	-5.24%
O=C1C(=O)N(c2ccccc2)c2ccccc21	-30.7%
O/N=C1\CCc2cc(Cl)ccc21	-5.67%
Cc1ccc(C)c(NC(=O)C(Sc2nnc(-c3cccs3)o2)c2ccccc2)c1 (centres unmarked)	15%
O=Cc1ccc(O)cc1O	-1.16%
CCN(C(=O)c1ccc2c(=O)n3c(nc2c1)CCCCC3)c1ccccc1C	-3.73%

SMILES	hERG current change (%, negative = inhibition) at 10uM
O=C1c2ccccc2C(=O)N1CCC(=O)N1CCCc2ccccc21	-6.39%
O=C(NCC1CCCO1)C1CCCN(Cc2cnn(-c3ccccc3)c2-n2cccc2)C1 (centres unmarked)	-11.2%
COC(=O)c1cc(NS(=O)(=O)c2ccc(NCc3cccnc3)c(N)c2)cc(C(=O)OC)c1	-11.5%
CCOc1ccc(C(=O)Nc2ccc(N3CCN(C)CC3)cc2)cc1[N+](=O)[O-]	-57.3%
Cc1cc(N)n(Cc2ccc(Cl)cc2)n1	31.7%
CCOC(=O)CC(C(=O)OCC)P(=O)(c1ccccc1)c1ccccc1 (centres unmarked)	8.37%
CSc1ccc(CN2CCN(S(=O)(=O)Cc3ccccc3)CC2)cc1	1.28%
CN1CCN(C(=S)NC(=O)/C=C/c2cccs2)CC1	-0.141%
CSc1nccc(-c2c(-c3ccc(Cl)cc3)noc2C)n1	-1.79%
CC(C)(C)c1ccc(OCC(=O)NCCN2CCOCC2)cc1.Cl	1.25%
CCOC(=O)C(C)c1c(C(=O)c2ccc(C)nc2)c2ccccc2n1C (centres unmarked)	-0.443%
COc1cc(C(=O)OCC(=O)N2CCOCC2)c([N+](=O)[O-])cc1OC	14.5%
Cc1ccc(C(=O)N(C)CC(=O)Nc2ccc(N3CCOCC3)cc2)s1	-11.6%
CCc1ccccc1NC(=S)NCC1CCN(c2ccc(OC)cc2)C1 (centres unmarked)	-7.36%
Cc1cc(NC(=O)CSc2nc3c(C)cccc3cc2C#N)no1	16.9%
COc1ccc(-n2c(Cc3cccn3C)nnc2SCC(=O)NCc2ccc(F)cc2)cc1	-30.1%
C[C@]12CC[C@@H](O)C[C@@H]1CC[C@@H]1[C@@H]2CC[C@]2(C)[C@@H](O)CC[C@@H]12	19.8%
COc1cccc2sc(N(CCCN(C)C)C(=O)CCS(=O)(=O)c3ccccc3)nc12	-62.7%
COc1ccc(C(=O)N2CCOCC2)cc1S(=O)(=O)N1CCC(C)CC1	-9.4%
CC(C)(C)NC(=O)NC(=O)COC(=O)c1ccc2c(c1)S(=O)(=O)N=C1CCCCCN12	18.9%
CCOCCCNC(=O)C(NC(=O)c1ccc2c(c1)OCO2)c1ccc(OC)cc1 (centres unmarked)	-11.6%
CC(C)N(Cc1nc(-c2ccccc2)no1)C(=O)C1CCCCC1	-12.1%

SMILES	hERG current change (%, negative = inhibition) at 10uM
Cc1c(C)c2ccc(OC(C)C(=O)NC3CC(C)(C)NC(C)(C)C3)cc2oc1=O (centres unmarked)	7.7%
Cc1ccc(S(=O)(=O)N(CC(O)CN2CCCC2)c2ccccc2)cc1 (centres unmarked)	-62.2%
O=C(O)C(=O)O.O=C1CN(C(=O)CNCc2cccc(Cl)c2)c2ccccc2N1	11.2%
Cc1noc(C)c1S(=O)(=O)N1CCCC(C(=O)Nc2cccnc2)C1 (centres unmarked)	2.51%
O=C(COC(=O)c1ccc(O)cc1O)NCCN1C(=O)CSC1=O	11.9%
COc1ccccc1NS(=O)(=O)c1ccc(C(=O)N2CCN(c3ccccc3)CC2)cc1	-16.9%
Cc1ccc(C(=O)OCC(=O)NCc2cc(C)c(O)c(C)c2)cc1S(=O)(=O)N1CCCCC1	-28.2%
COC(=O)c1cccc(NC(=O)c2ccc[n+]([O-])c2)c1	21.7%
O=C(O)c1cccc(-c2ccc3c(c2)OCO3)c1	17.4%
CC(C(=O)NN=C(c1ccccc1)c1ccccc1)N1CCOCC1 (centres unmarked)	-12.8%
C=CCOc1ccc(Br)cc1CNCC.Cl	-10.5%
O=C(Nc1ccc(Br)cn1)c1cccc(-c2cc3ccccc3oc2=O)c1	17.3%
CC(=O)Nc1ccc(S(=O)(=O)NCCC(=O)OCC(=O)c2ccc(Br)cc2)cc1	-12.6%
Cl.c1ccc(Cc2ccc(OCCn3ccnc3)cc2)cc1	-29.5%
CC(CNC(=O)CCc1nnc2ccc(N3CCC4(CC3)OCCO4)nn12)c1ccccc1 (centres unmarked)	-0.296%
COc1ccccc1CNC(=O)c1cc(C2CC2)nc2c1cnn2C(C)C	-15.9%
N#Cc1c(C(F)(F)F)cc(-c2ccccc2)nc1SCC(=O)N1CCOCC1	-8.28%
CCOC(=O)c1[nH]c2ccccc2c1NC(=O)CC(C)C	5.72%
CCN1C(=O)C(=Cc2c(C)n(CC(=O)NCC3CCCO3)c3ccccc23)C(=O)N(CC)C1=S (centres unmarked)	27.5%
CCN(Cc1ccccc1)Cc1cc(OC)cc(OC)c1	-33%
O=C1C2CC=C(Cl)CC2C(=O)N1CCCCCCN1C(=O)C2CC=C(Cl)CC2C1=O (centres unmarked)	-38.9%
CC(C(=O)N1CCOCC1)N1c2cccc3cccc(c23)S1(=O)=O (centres unmarked)	0.223%

SMILES	hERG current change (%, negative = inhibition) at 10uM
C=CCn1c(N2CCN(c3ccc(OC)cc3)CC2)nc2c1c(=O)[nH]c(=O)n2C	-24.6%
Cn1c(C(C#N)C(=O)c2sc3ccccc3c2Cl)nc2ccccc21 (centres unmarked)	7.05%
Cc1ccc(CNc2oc(COc3ccccc3Cl)nc2C#N)cc1	13.2%
Cn1c(C(=O)O)c(CC(=O)Nc2ccc(F)cc2F)c2ccccc21	-1.51%
O=C(Nc1ccc(Oc2ncccn2)cc1)c1ccco1	11.7%
COc1ccc2c(c1)[C@H]1[C@H](CO2)[C@H](c2ccccc2)[C@]2(C)C(=O)N[C@H](C)C(=O)N12	6.48%
O=c1cc2[nH]c3ccccc3c(=O)n2nc1-c1ccccc1	9.65%
c1ccc2c(N3CCCCCC3)nc(-c3ccncc3)nc2c1	-34.5%
CCOC(=O)c1c(C)[nH]c(C)c1S(=O)(=O)NCC1CCN(Cc2cccc(Cl)c2)CC1	-20.5%
COCCCNC(NC(=O)c1ccc(OC)cc1)C(Cl)(Cl)Cl (centres unmarked)	2.33%
O=C(CN(c1ccccc1)S(=O)(=O)c1ccccc1)N1CCOCC1	4.9%
CCN1C(=O)[C@H]2[C@@H](c3ccc(OC)cc3)N3C(=O)CN(CCOC)C(=O)[C@@]3(C)[C@H]2C1=O	-2.75%
Cc1cc(C)c(C#N)c(SCC(=O)C(C)(C)C)n1	-13.8%
COC(=O)c1c2c(nc3ccccc13)CCC2	-3.81%
N#Cc1ccsc1NC(=O)CSc1nnc(-c2ccccc2)o1	2.98%
Cc1cc2c3c(c1)C1(C(=O)N3C(C)(C)CC2C)C(C#N)=C(N)Oc2cc(O)ccc21 (centres unmarked)	11.1%
O=C(Cn1cc(SCc2ccc(Cl)cc2)c2ccccc21)N1CCOCC1	-53.3%
Cc1ccccc1CNc1nc(N)n(-c2ccccc2)n1.Cl	-14.8%
COCCCNC(=O)c1ccc(CS(=O)(=O)c2ccc(OC)cc2)o1	5.86%
CCOc1cc(C(=S)N2CCOCC2)ccc1OC(=O)c1ccccc1	12.9%
